Data published in PMC9911399, “Two distinct binding modes provide the RNA-binding protein RbFox with extraordinary sequence specificity”.
Positions count from the first letter of the chain named. The list shows a part of the results.

T1: RBFOX1 RRM (Homo sapiens, UniProt Q9NWB1 109-208)
T1 sequence: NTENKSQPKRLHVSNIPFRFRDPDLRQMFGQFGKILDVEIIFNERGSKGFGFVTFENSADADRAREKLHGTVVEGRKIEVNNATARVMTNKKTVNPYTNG

B1: CUGGUAA (DNA:RNA)
RNA: GGGAGACCGGAAUUCAGAUUGUCCCUGGUAAUUAAAUCCCGUCGUAGCCACCA
DNA 1: CAATCTGAATTCCGGTCTCCC
DNA 2: TGGTGGCTACGACGGGATT
B2: CUAGACC (DNA:RNA)
RNA: B1 RNA with G27A, U29A, A30C, A31C
DNA 1: CAATCTGAATTCCGGTCTCCC
DNA 2: TGGTGGCTACGACGGGATT
B3: GCCUGAG (DNA:RNA)
RNA: B1 RNA with C25G, U26C, G27C, G28U, U29G, A31G
DNA 1: CAATCTGAATTCCGGTCTCCC
DNA 2: TGGTGGCTACGACGGGATT
B4: GUUGGAA (DNA:RNA)
RNA: B1 RNA with C25G, G27U, U29G
DNA 1: CAATCTGAATTCCGGTCTCCC
DNA 2: TGGTGGCTACGACGGGATT
B5: AUGACAC (DNA:RNA)
RNA: B1 RNA with C25A, G28A, U29C, A31C
DNA 1: CAATCTGAATTCCGGTCTCCC
DNA 2: TGGTGGCTACGACGGGATT
B6: ACCGAGG (DNA:RNA)
RNA: B1 RNA with C25A, U26C, G27C, U29A, A30G, A31G
DNA 1: CAATCTGAATTCCGGTCTCCC
DNA 2: TGGTGGCTACGACGGGATT
B7: UAUUAUA (DNA:RNA)
RNA: B1 RNA with C25U, U26A, G27U, G28U, U29A, A30U
DNA 1: CAATCTGAATTCCGGTCTCCC
DNA 2: TGGTGGCTACGACGGGATT
B8: UGCUUAG (DNA:RNA)
RNA: B1 RNA with C25U, U26G, G27C, G28U, A31G
DNA 1: CAATCTGAATTCCGGTCTCCC
DNA 2: TGGTGGCTACGACGGGATT
B9: CGUCCGA (DNA:RNA)
RNA: B1 RNA with U26G, G27U, G28C, U29C, A30G
DNA 1: CAATCTGAATTCCGGTCTCCC
DNA 2: TGGTGGCTACGACGGGATT
B10: CCAGAUC (DNA:RNA)
RNA: B1 RNA with U26C, G27A, U29A, A30U, A31C
DNA 1: CAATCTGAATTCCGGTCTCCC
DNA 2: TGGTGGCTACGACGGGATT
B11: ACGAGAA (DNA:RNA)
RNA: B1 RNA with C25A, U26C, G28A, U29G
DNA 1: CAATCTGAATTCCGGTCTCCC
DNA 2: TGGTGGCTACGACGGGATT
B12: UUGAUCU (DNA:RNA)
RNA: B1 RNA with C25U, G28A, A30C, A31U
DNA 1: CAATCTGAATTCCGGTCTCCC
DNA 2: TGGTGGCTACGACGGGATT
B13: CCUAGGG (DNA:RNA)
RNA: B1 RNA with U26C, G27U, G28A, U29G, A30G, A31G
DNA 1: CAATCTGAATTCCGGTCTCCC
DNA 2: TGGTGGCTACGACGGGATT
B14: GCCAUAA (DNA:RNA)
RNA: B1 RNA with C25G, U26C, G27C, G28A
DNA 1: CAATCTGAATTCCGGTCTCCC
DNA 2: TGGTGGCTACGACGGGATT
B15: UAAUCUC (DNA:RNA)
RNA: GGGAGACCGGAAUUCAGAUUGUCCUAAUCUCUUAAAUCCCGUCGUAGCCACCA
DNA 1: CAATCTGAATTCCGGTCTCCC
DNA 2: TGGTGGCTACGACGGGATT
B16: GGAAAAC (DNA:RNA)
RNA: B15 RNA with U25G, A26G, U28A, C29A, U30A
DNA 1: CAATCTGAATTCCGGTCTCCC
DNA 2: TGGTGGCTACGACGGGATT
B17: UUGUAGG (DNA:RNA)
RNA: B1 RNA with C25U, G28U, U29A, A30G, A31G
DNA 1: CAATCTGAATTCCGGTCTCCC
DNA 2: TGGTGGCTACGACGGGATT
B18: UAUAUCG (DNA:RNA)
RNA: B15 RNA with A27U, U28A, C29U, U30C, C31G
DNA 1: CAATCTGAATTCCGGTCTCCC
DNA 2: TGGTGGCTACGACGGGATT
B19: ACUGUCC (DNA:RNA)
RNA: B1 RNA with C25A, U26C, G27U, A30C, A31C
DNA 1: CAATCTGAATTCCGGTCTCCC
DNA 2: TGGTGGCTACGACGGGATT
B20: UUUGUUC (DNA:RNA)
RNA: B1 RNA with C25U, G27U, A30U, A31C
DNA 1: CAATCTGAATTCCGGTCTCCC
DNA 2: TGGTGGCTACGACGGGATT

Biological target: T1, RBFOX1 RRM
Experiment: EMSA; HiTS-Eq, 1 nM pool, 10 min; buffer printed only for the single-RNA assays: 10 mM Tris pH 7.5, 150 mM NaCl, 3.4 mM EDTA, 0.001% NP-40, 30 C
Conditions: tags: His6 N-terminal (pET28a); label: 5' 32P
Outline: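 These values rest on relative association constants, computed from read-count changes of each RNA species versus the control reaction and normalised to the cognate motif. Reads came from free RNA recovered by 8% native PAGE after purified RbFox RRM (wild type or mutant) at increasing concentrations was equilibrated for 10 min in 50 µL with 1 nM of a 5′-radiolabelled pool with 7 randomized nucleotides and DNA-annealed flanks.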

Row | Binder | binding signal
1 | B1 | 0.0159 KA relative to UGCAUGU
2 | B2 | 0.00604 KA relative to UGCAUGU
3 | B3 | 0.0282 KA relative to UGCAUGU
4 | B4 | 0.0125 KA relative to UGCAUGU
5 | B5 | 0.00299 KA relative to UGCAUGU
6 | B6 | 0.0104 KA relative to UGCAUGU
7 | B7 | 0.00523 KA relative to UGCAUGU
8 | B8 | 0.0271 KA relative to UGCAUGU
9 | B9 | 0.0156 KA relative to UGCAUGU
10 | B10 | 0.0066 KA relative to UGCAUGU
11 | B11 | 0.00238 KA relative to UGCAUGU
12 | B12 | 0.0139 KA relative to UGCAUGU
13 | B13 | 0.000444 KA relative to UGCAUGU
14 | B14 | 0.00219 KA relative to UGCAUGU
15 | B15 | 0.00476 KA relative to UGCAUGU
16 | B16 | 0.00279 KA relative to UGCAUGU
17 | B17 | 0.00955 KA relative to UGCAUGU
18 | B18 | 0.0117 KA relative to UGCAUGU
19 | B19 | 0.00488 KA relative to UGCAUGU
20 | B20 | 0.0226 KA relative to UGCAUGU
